Reference: the supplement of paper PMC4967469

Experiments:
Experiment in all cases: Viability of human cancer cell lines after 72 h of drug (GDSC screen)
[1] = compound: COc1cc2c(Oc3ccc(NC(=O)C4(C(=O)Nc5ccc(F)cc5)CC4)cc3F)ccnc2cc1OCCCN1CCOCC1 [XL-880]; settings: top dose 5.12 µM; top dose inferred
Procedure: (§1)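 Human cancer cell lines in 384-well plates, medium with 10% serum, drug for 72 h over a 256-fold dose range (nine 2-fold or five 4-fold steps up to the top dose). Adherent lines were fixed and stained with the nucleic acid dye Syto60, suspension lines read with resazurin; signal relative to control wells, capped at 0 and 100%. One two-parameter sigmoid per drug and line, fitted in a mixed model over all curves with the slope shared within a line.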

[2] = compound: Cn1nnc2c(C(N)=O)ncn2c1=O [Temozolomide]; settings: top dose 30 µM
Procedure: as §1

[3] = compound: Oc1ccc2ccccc2c1SSc1c(O)ccc2ccccc12 [IPA-3]; settings: top dose 32 µM; top dose inferred
Procedure: as §1

[4] = compound: CN1CCc2c(c3ccccc3n2Cc2ccc(C(=O)NO)cc2)C1 [Tubastatin A]; settings: top dose 20 µM
Procedure: as §1

[5] = compound: O=C(NOCC1CC1)c1ccc(F)c(F)c1Nc1ccc(I)cc1Cl [CI-1040]; settings: top dose 10 µM; top dose inferred
Procedure: as §1

[6] = compound: CN(C)C/C=C/C(=O)Nc1ccc(C(=O)Nc2cccc(Nc3nccc(-c4cccnc4)n3)c2)cc1 [ZG-10]; settings: top dose 10 µM; top dose inferred
Procedure: as §1

Cell Line	AUC [1]	IC50 [1]	AUC [2]	IC50 [2]	AUC [3]	IC50 [3]	AUC [4]	IC50 [4]	AUC [5]	IC50 [5]	AUC [6]	IC50 [6]
NCI-H28 (mesothelioma, adherent)	0.828	4.61 µM	0.977	> 30 µM	0.981	> 32 µM	0.975	> 20 µM	0.855	> 10 µM	0.749	4.17 µM
NCI-H2347 (lung adenocarcinoma, adherent)	0.689	1.22 µM	0.98	> 30 µM	0.775	15.5 µM	0.945	> 20 µM	0.845	9.67 µM	0.726	3.19 µM
D-392MG (glioma, adherent)	0.53	0.399 µM	0.976	> 30 µM	0.976	> 32 µM	0.975	> 20 µM	0.868	> 10 µM	0.828	9.43 µM
NCI-H292 (lung adenocarcinoma, adherent)	0.497	0.314 µM	0.949	> 30 µM	0.979	> 32 µM	0.841	18.4 µM	0.609	1.33 µM	0.788	5.42 µM
HCC1569 (breast, adherent)	0.729	1.82 µM	0.961	> 30 µM	0.933	> 32 µM	0.96	> 20 µM	0.976	> 10 µM	0.682	2.41 µM
HuP-T3 (pancreas, adherent)	0.675	1.1 µM	0.97	> 30 µM	0.954	> 32 µM	0.934	> 20 µM	0.639	1.65 µM	0.687	2.37 µM
HEC-1 (endometrium, adherent)	0.872	4.54 µM	0.988	> 30 µM	0.891	> 32 µM	0.989	> 20 µM	0.975	> 10 µM	0.704	2.29 µM
CHP-212 (neuroblastoma, adherent)	0.983	> 5.12 µM	0.958	> 30 µM	0.738	8.98 µM	0.896	> 20 µM	0.124	0.0455 µM	0.861	7.44 µM
HCC1395 (breast, adherent)	0.769	2.33 µM	0.977	> 30 µM	0.963	> 32 µM	0.966	> 20 µM	0.967	> 10 µM	0.733	3.35 µM
JHU-022 (head and neck, adherent)	0.727	1.71 µM	0.979	> 30 µM	0.981	> 32 µM	0.981	> 20 µM	0.685	2.38 µM	0.728	3.36 µM
CAL-33 (head and neck, adherent)	0.653	0.85 µM	0.94	> 30 µM	0.981	> 32 µM	0.986	> 20 µM	0.558	0.898 µM	0.796	4.69 µM
WM1552C (melanoma, adherent)	0.85	3.91 µM	0.986	> 30 µM	0.78	13.3 µM	0.974	> 20 µM	0.892	> 10 µM	0.898	> 10 µM
SW948 (large intestine, adherent)	0.798	3.88 µM	0.957	> 30 µM	0.972	> 32 µM	0.957	> 20 µM	0.854	> 10 µM	0.98	> 10 µM
TYK-nu (ovary, adherent)	0.814	3.03 µM	0.931	> 30 µM	0.973	> 32 µM	0.952	> 20 µM	0.524	0.73 µM	0.729	2.95 µM
BT-20 (breast, adherent)	0.923	> 5.12 µM	0.98	> 30 µM	0.983	> 32 µM	0.979	> 20 µM	0.871	> 10 µM	0.976	> 10 µM
H2369 (mesothelioma, adherent)	0.727	1.45 µM	0.982	> 30 µM	0.864	29.6 µM	0.984	> 20 µM	0.891	> 10 µM	0.713	2.56 µM
LOU-NH91 (lung squamous cell carcinoma, adherent)	0.726	1.5 µM	0.985	> 30 µM	0.986	> 32 µM	0.981	> 20 µM	0.93	> 10 µM	0.679	2.07 µM
JEG-3 (urogenital system, adherent)	0.991	> 5.12 µM	0.985	> 30 µM	0.875	26.3 µM	0.989	> 20 µM	0.937	> 10 µM	0.908	> 10 µM
HSC-2 (head and neck, adherent)	0.767	1.76 µM	0.979	> 30 µM	0.764	10.7 µM	0.989	> 20 µM	0.866	7.79 µM	0.795	4.24 µM
A2780 (ovary, semi-adherent)	0.365	0.134 µM	0.982	> 30 µM	0.709	7.97 µM	0.886	> 20 µM	0.679	2.02 µM	0.739	3.1 µM
NY (osteosarcoma, adherent)	0.88	> 5.12 µM	0.987	> 30 µM	0.877	31.6 µM	0.989	> 20 µM	0.899	> 10 µM	0.685	2.05 µM
JIMT-1 (breast, adherent)	0.852	4.43 µM	0.981	> 30 µM	0.853	28 µM	0.984	> 20 µM	0.846	8.16 µM	0.914	> 10 µM

The IC50 comes from the fitted curve, where viability falls to half of the control; fits outside the tested doses are given as limits. AUC sums up the same curve from the lowest dose to the 256-fold higher top dose: 1 means no effect, lower means more sensitive. For part of these data: An inferred top dose was derived from the fitted curves, not read from the paper.
